Measurements as given in the supplement of paper PMC9446081.
In all, about 39,000 compounds went through this assay and about 220 (0.56%) showed activity. This is one part of the list.
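Also: static incubation at 37 °C against the wild-type strain, values averaged over two biological replicates.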

Each molecule was assayed on Escherichia coli K-12 BW25113 (assay: relative growth (OD600 normalised to plate interquartile mean) (fraction); higher = less growth inhibition, active = 0.2 or less). Conditions: 50 µM; LB; incubation time: overnight (16-24 h).
In the case of `COc1ccc(NC(=O)Nc2ccc3c(c2)C(=O)N([C@@H](C)CO)C[C@@H](C)[C@@H](CN(C)Cc2ccc4c(c2)OCO4)OCCCC[C@H](C)O3)cc1`, the relative growth is reported as inactive: 1.01. In the case of `CCc1oc(CC[C@@H](CO)NC(=O)NCCn2cc(C3(O)CCCCC3)nn2)c(C(=O)OC)c1C(=O)OC`, the relative growth is reported as inactive: 0.985. `C[C@H](CO)N1C[C@H](C)[C@@H](CN(C)C(=O)c2ccncc2)Oc2cc(C#C[C@@H](C)O)ccc2S1(=O)=O` was tested, and the relative growth was inactive: 1.02. With `C[C@@H]1CN([C@@H](C)CO)C(=O)Cc2cc(NC(=O)Nc3ccccc3)ccc2O[C@H]1CN(C)Cc1ccc(Cl)c(Cl)c1` the relative growth was inactive: 0.998. For `C[C@@H]1CN([C@@H](C)CO)C(=O)c2cccc(NC(=O)Nc3ccc(C(F)(F)F)cc3)c2O[C@@H]1CN(C)Cc1ccc(Cl)c(Cl)c1`, the relative growth was inactive: 1.03. `Cc1noc(C)c1NC(=O)Nc1cccc2c1O[C@H](CN(C)Cc1ccc(Oc3ccccc3)cc1)[C@@H](C)CN([C@H](C)CO)C2=O` was tested, and the relative growth was inactive: 1.02. For `O[C@@H]1[C@@H](O)[C@H](Br)C=C[C@H]1O`, the relative growth was inactive: 0.998. In the case of `C[C@@H]1CN([C@@H](C)CO)S(=O)(=O)c2ccc(C#CC3CC3)cc2O[C@@H]1CN(C)C(=O)Cc1ccncc1`, the relative growth is reported as inactive: 1.01. For `COc1cccc(NC(=O)N(C)C[C@@H]2Oc3ncc(C#Cc4ccncc4)cc3C(=O)N([C@@H](C)CO)C[C@H]2C)c1`, the relative growth was inactive: 0.99. With `CCc1nc2ccc(C(=O)N3CCN(S(=O)(=O)CC)CC3)cn2c1N(CC)C(=O)NCCc1ccccc1` the relative growth was inactive: 0.987. `C[C@@H]1CN([C@@H](C)CO)C(=O)c2cc(NC(=O)C3CCCCC3)ccc2O[C@@H](C)CCCCO[C@@H]1CN(C)C(=O)Nc1ccccc1` was tested, and the relative growth was inactive: 1.02. With `CS(=O)(=O)CCCCN=C=S` the relative growth was inactive: 0.902. With `C[C@H](CO)N1C[C@H](C)[C@@H](CN(C)Cc2ccc3c(c2)OCO3)OCCCC[C@H](C)Oc2ccc(NS(=O)(=O)c3ccccc3)cc2C1=O` the relative growth was inactive: 1.04. For `CO[C@@H]1CN(C)C(=O)c2cc(NC(=O)C3CC3)ccc2OC[C@H](C)N(C(=O)Cc2ccccn2)C[C@H]1C`, the relative growth was inactive: 1.04. For `CC(C)NC(=O)N(C)C[C@@H]1OCCCC[C@@H](C)Oc2ccc(NC(=O)Nc3ccc(C(F)(F)F)cc3)cc2C(=O)N([C@@H](C)CO)C[C@@H]1C`, the relative growth was inactive: 0.999. `C[C@@H]1CCCCO[C@@H](CN(C)Cc2ccc3c(c2)OCO3)[C@H](C)CN([C@@H](C)CO)C(=O)c2cc(NC(=O)Nc3ccccc3)ccc2O1` was tested, and the relative growth was inactive: 1.02. For `C[C@@H]1CN([C@H](C)CO)C(=O)Cc2cc(NC(=O)CCN3CCOCC3)ccc2O[C@H]1CN(C)S(=O)(=O)c1ccc(Cl)cc1`, the relative growth was inactive: 1.02. For `C[C@@H]1CN([C@H](C)CO)C(=O)c2cccc(NC(=O)C3CCOCC3)c2O[C@@H]1CN(C)C(=O)NC1CCCCC1`, the relative growth was inactive: 1.02. In the case of `CC(C)C[C@@H]1NC(=O)[C@@H]2C[C@H](C(=O)NCCCC[N+](C)(C)C)[C@H](c3cccc(OCCO)c3)N2C1=O`, the relative growth is reported as inactive: 1.02. With `C[C@@H]1CN([C@H](C)CO)C(=O)c2cc(/C=C/c3ccccc3)cnc2O[C@@H]1CN(C)C(=O)C1CCOCC1` the relative growth was inactive: 0.996. `CC(C)(C)[S@@](=O)N1Cc2cc3nc(-c4cccc(Br)c4)c2[C@H]1CCOC(=O)c1cc2c(c(-c4cccc(Br)c4)n1)[C@@H](CCOC3=O)N([S@](=O)C(C)(C)C)C2` was tested, and the relative growth was inactive: 1.02. With `C[C@@H]1CCCCO[C@@H](CN(C)C(=O)Nc2ccccc2)[C@H](C)CN([C@@H](C)CO)C(=O)c2cc(NC(=O)Cc3ccccc3)ccc2O1` the relative growth was inactive: 1.02. In the case of `C[C@H](CO)N1C[C@H](C)[C@H](CN(C)Cc2ccc(Cl)c(Cl)c2)Oc2ccc(NS(=O)(=O)c3ccccc3)cc2C1=O`, the relative growth is reported as inactive: 1.03. With `CO[C@@H]1CN(C)C(=O)c2cc(NC(=O)c3ccccc3)ccc2OC[C@H](C)N(C(=O)CN(C)C)C[C@@H]1C` the relative growth was inactive: 1.01. In the case of `C[C@@H]1CN([C@H](C)CO)C(=O)c2cc(N(C)C)ccc2O[C@H]1CN(C)S(=O)(=O)c1ccc(Cl)cc1`, the relative growth is reported as inactive: 1.01. In the case of `COc1cccc(NC(=O)C[C@H]2CC[C@H]3[C@H](COc4ccc(NC(=O)C5CCOCC5)cc4C(=O)N3C)O2)c1`, the relative growth is reported as inactive: 1.01. `COc1cccc(S(=O)(=O)N[C@H]2CC[C@@H](CCn3cc(-c4ccccc4OC)nn3)O[C@@H]2CO)c1` was tested, and the relative growth was inactive: 1.01. With `CCNC(=O)C[C@H]1CC[C@@H](NC(=O)C2CC2)[C@H](CO)O1` the relative growth was inactive: 1.02. In the case of `Cc1ccc(-c2nn[nH]n2)n1C`, the relative growth is reported as inactive: 0.996. In the case of `O=C(N[C@@H]1C=C[C@H](CC(=O)N2CCOCC2)O[C@@H]1CO)c1ccccn1`, the relative growth is reported as inactive: 0.967. `COCCNC(=O)C[C@@H]1C[C@H]2c3cc(NC(=O)COC)ccc3O[C@H]2[C@H](CO)O1` was tested, and the relative growth was inactive: 0.976. With `COc1ccc(S(=O)(=O)Nc2ccc3c(c2)C(=O)N([C@@H](C)CO)C[C@@H](C)[C@H](CN(C)C(=O)Nc2ccc4c(c2)OCO4)OCCCC[C@H](C)O3)cc1` the relative growth was inactive: 1.03. In the case of `O=C(C[C@@H]1CC[C@@H]2[C@H](COC[C@@H](O)CN2S(=O)(=O)c2cccc(Cl)c2)O1)NCCCN1CCOCC1`, the relative growth is reported as inactive: 1. `C[C@H]1CN([C@@H](C)CO)C(=O)c2cc(C#Cc3cccnc3)cnc2O[C@@H]1CN(C)S(=O)(=O)c1ccccc1F` was tested, and the relative growth was inactive: 1.01. `O=C1NCCCc2occc21` was tested, and the relative growth was inactive: 0.989. `CN(C)CC(=O)N[C@H]1C=C[C@H](CC(=O)NCCN2CCCCC2)O[C@H]1CO` was tested, and the relative growth was inactive: 0.979. For `O=C1CC[NH][Zn][O]C(=O)[C@H](Cc2cnc[nH]2)N1`, the relative growth was inactive: 0.988. In the case of `COCCN1CCO[C@H]2CN(S(=O)(=O)c3cn(C)cn3)CC[C@@H]2C1`, the relative growth is reported as inactive: 1.02. For `COc1ccc(S(=O)(=O)Nc2ccc3c(c2)C(=O)N([C@@H](C)CO)C[C@@H](C)[C@@H](CN(C)C(=O)Nc2c(C)noc2C)O3)cc1`, the relative growth was inactive: 0.934. With `COc1ccc(NC(=O)N(C)C[C@@H]2Oc3ncc(C#CC(C)C)cc3C(=O)N([C@@H](C)CO)C[C@H]2C)cc1` the relative growth was inactive: 1.01. `C[C@@H]1CN([C@H](C)CO)C(=O)c2cc(NS(=O)(=O)c3ccccc3)ccc2O[C@@H]1CN(C)Cc1ccc(Cl)c(Cl)c1` was tested, and the relative growth was inactive: 0.98. With `CNC[C@H]1Oc2ccc(NS(=O)(=O)c3cn(C)cn3)cc2C(=O)N([C@H](C)CO)C[C@@H]1C` the relative growth was inactive: 1.01. With `C[C@@H]1CCCCO[C@@H](CN(C)CC2CCCCC2)[C@H](C)CN([C@@H](C)CO)C(=O)c2cc(NC(=O)Nc3ccc(F)cc3)ccc2O1` the relative growth was inactive: 0.978. For `C[C@H](CO)N1C[C@H](C)[C@H](CN(C)C(=O)C2CCCCC2)OCCCC[C@H](C)Oc2ccc(NC(=O)Nc3ccc4c(c3)OCO4)cc2C1=O`, the relative growth was inactive: 1.03. With `C[C@H](CO)N1C[C@H](C)[C@@H](CN(C)S(=O)(=O)c2ccccc2)Oc2ccc(NC(=O)C3CC3)cc2CC1=O` the relative growth was inactive: 1. In the case of `Cc1ccc(-c2ccc3c(c2)O[C@@H](CN(C)C(=O)Nc2ccc(C(F)(F)F)cc2)[C@H](C)CN([C@H](C)CO)S3(=O)=O)cc1`, the relative growth is reported as inactive: 0.955. In the case of `C[C@@H]1CCCCO[C@@H](CN(C)C(=O)Nc2ccc3c(c2)OCO3)[C@H](C)CN([C@H](C)CO)C(=O)c2cc(NC(=O)Cc3ccccc3)ccc2O1`, the relative growth is reported as inactive: 1.03. In the case of `COc1cc(Nc2c(C#N)cnc3cc(OCCCN4CCN(C)CC4)c(OC)cc23)c(Cl)cc1Cl`, the relative growth is reported as inactive: 0.945. With `C[C@@H]1CN([C@H](C)CO)S(=O)(=O)c2ccc(C#CCC3CCCC3)cc2O[C@@H]1CN(C)C(=O)c1cnccn1` the relative growth was inactive: 1.01. With `CCC(=O)N[C@H]1CC[C@H](CC(=O)OC)O[C@H]1CO` the relative growth was inactive: 1.01. With `CO[C@H]1[C@H](OC)[C@@H](OC)C[C@@H]2C(=O)O[C@@H](C(=O)O)[C@@H]12` the relative growth was inactive: 0.982. `CCOC(=O)c1ccc(NC(=O)N[C@H]2O[C@@H](CO)[C@@H](O)[C@@H](O)[C@@H]2O)cc1` was tested, and the relative growth was inactive: 0.896. For `C[C@@H]1CCCCO[C@@H](CN(C)C(=O)c2ccncc2)[C@@H](C)CN([C@@H](C)CO)C(=O)c2cc(NS(=O)(=O)c3ccc(Cl)cc3)ccc2O1`, the relative growth was inactive: 1. With `COc1ccc(S(=O)(=O)N[C@@H]2C=C[C@@H](CC(=O)N3CCC(Cc4ccccc4)CC3)O[C@H]2CO)cc1` the relative growth was inactive: 0.994. `CCCN(C)C[C@@H]1OCCCC[C@@H](C)Oc2ccc(NC(=O)Nc3ccc(F)cc3)cc2C(=O)N([C@H](C)CO)C[C@H]1C` was tested, and the relative growth was inactive: 0.958. `C=CC1(C)CC(=O)C2(O)C(C)(O1)C(OC(C)=O)C(O)C1C(C)(C)CCC(O)C12C` (configuration not stated) was tested, and the relative growth was inactive: 1.24. With `COc1ccc(S(=O)(=O)N2C[C@@H](O)COC[C@@H]3O[C@H](CC(=O)N[C@@H]4CCN(Cc5ccccc5)C4)CC[C@H]32)cc1` the relative growth was inactive: 0.982. With `COc1ccc(S(=O)(=O)Nc2ccc3c(c2)C(=O)N([C@@H](C)CO)C[C@H](C)[C@H](CN(C)C(=O)NC2CCCCC2)OCCCC[C@H](C)O3)cc1` the relative growth was inactive: 0.993. For `O=C(O)c1ccnc(C(=O)O)c1`, the relative growth was inactive: 0.969. `C[C@H](CO)N1C[C@H](C)[C@H](CN(C)Cc2ccc(Oc3ccccc3)cc2)OCc2ccccc2-c2ccccc2C1=O` was tested, and the relative growth was inactive: 1.01. With `CO[C@H]1CN(C)C(=O)c2cc(NC(=O)C3CC3)ccc2OC[C@H](C)N(C(=O)C2CCOCC2)C[C@@H]1C` the relative growth was inactive: 1.01. In the case of `COc1ccc(S(=O)(=O)N(C)C[C@H]2Oc3c(NS(C)(=O)=O)cccc3C(=O)N([C@H](C)CO)C[C@@H]2C)cc1`, the relative growth is reported as inactive: 1.04.
